Measured values published in PMC4336329 (PLoS ONE, 2015).
Among all 310,000 compounds or so, about 2,200 (0.71%) showed an effect of 50% or more. Effects have a minus sign here. The list shows a part of the results.

The compounds below were run against human ether-à-go-go-related gene (hERG) potassium channel (human, UniProt Q12809) (assay: primary screen, population patch clamp on CHO cells stably expressing hERG).
Chain of human ether-à-go-go-related gene (hERG) potassium channel (Q12809 whole entry, looked up): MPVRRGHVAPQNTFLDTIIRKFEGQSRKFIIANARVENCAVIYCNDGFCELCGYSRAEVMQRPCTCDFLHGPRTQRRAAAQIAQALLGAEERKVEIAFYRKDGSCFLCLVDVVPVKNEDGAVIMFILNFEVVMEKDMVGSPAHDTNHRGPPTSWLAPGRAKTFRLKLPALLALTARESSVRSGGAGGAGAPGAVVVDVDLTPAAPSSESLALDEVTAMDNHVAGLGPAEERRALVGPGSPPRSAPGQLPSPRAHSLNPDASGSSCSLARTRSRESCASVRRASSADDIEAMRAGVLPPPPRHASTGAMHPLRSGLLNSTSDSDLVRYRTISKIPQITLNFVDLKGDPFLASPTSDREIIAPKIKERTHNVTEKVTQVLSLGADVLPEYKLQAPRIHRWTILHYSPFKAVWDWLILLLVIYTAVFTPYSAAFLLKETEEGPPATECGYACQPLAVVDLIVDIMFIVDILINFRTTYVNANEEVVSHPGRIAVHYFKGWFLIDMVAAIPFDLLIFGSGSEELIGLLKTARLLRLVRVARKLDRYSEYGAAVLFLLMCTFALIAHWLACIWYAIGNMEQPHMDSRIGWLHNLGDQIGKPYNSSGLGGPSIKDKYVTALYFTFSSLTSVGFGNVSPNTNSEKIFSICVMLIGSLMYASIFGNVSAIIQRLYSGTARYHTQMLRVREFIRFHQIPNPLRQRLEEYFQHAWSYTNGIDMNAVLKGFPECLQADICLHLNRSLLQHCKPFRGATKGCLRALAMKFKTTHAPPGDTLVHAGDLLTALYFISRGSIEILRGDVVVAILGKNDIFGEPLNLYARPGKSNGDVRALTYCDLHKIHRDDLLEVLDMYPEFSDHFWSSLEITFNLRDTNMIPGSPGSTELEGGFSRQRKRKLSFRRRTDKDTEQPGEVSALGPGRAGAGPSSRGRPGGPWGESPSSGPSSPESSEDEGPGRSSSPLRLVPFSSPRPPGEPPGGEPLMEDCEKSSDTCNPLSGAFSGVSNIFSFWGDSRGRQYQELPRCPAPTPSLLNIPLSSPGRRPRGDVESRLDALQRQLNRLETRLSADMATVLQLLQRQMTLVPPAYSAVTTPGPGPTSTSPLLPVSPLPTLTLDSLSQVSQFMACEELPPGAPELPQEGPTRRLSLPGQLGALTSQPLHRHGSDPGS

Point of comparison: `COc1cc2ccccc2cc1C(=O)N/N=C/c1cccnc1`, “hERG current change (%, negative = inhibition) at 1uM” value 0.286%. Against it:
- COC(=O)C(CC(=O)c1ccc(Cl)cc1)c1ccc(C(C)C)cc1 (stereo not drawn) — higher, 9.34%
- CCOC(=O)c1ccc(N/C=C/C(=O)C(C)(C)C)cc1 — higher, 17.4%
- COc1ccc(C(=O)NCC(=O)OCC(=O)Nc2sccc2C#N)cc1OC — higher, 13.1%
- CC(C)C[C@@H](CO)N1CCN(Cc2cccc(C#N)c2)CCC1=O — higher, 1.11%
- CC1CN(C(=O)C(C)N2CCN(c3cccc(Cl)c3)CC2)CC(C)O1 (stereo not drawn) — higher, 5.57%
- O=C(O)Cn1cc2c(n1)CCCC2 — higher, 12.3%
- OC(CNCC1(N2CCCCC2)CCCCC1)COc1ccc(Cl)cc1Cl (stereo not drawn) — lower, -74.2%
- COc1ccc(C2CC(c3cccs3)Nc3nnnn32)cc1 (stereo not drawn) — lower, -0.191%
- Cc1ccc(/C(O)=C2\C(=O)C(=O)N(CC(C)O)C2c2ccc(N(C)C)cc2)cc1 (stereo not drawn) — higher, 13.8%
- O=C(CN1CCC(C(=O)c2ccc(F)cc2)CC1)Nc1ccccc1 — lower, -10.5%
- CC1SC(c2cccc(Cl)c2)NC1=O (stereo not drawn) — higher, 2.86%
- COc1ccc(-c2cc(C(=O)N3CCC3)c3ccccc3n2)cc1OC — higher, 3.5%
- COCc1c(C(=O)OCc2c(C)noc2C)oc2ccccc12 — higher, 9.37%
- O=C(NNC(=S)Nc1ccc(F)cc1F)c1ccco1 — lower, -0.963%
- COc1ccccc1NS(=O)(=O)c1ccc(NC(C)=O)cc1 — higher, 10.5%
- CC1=NN(C(=O)c2ccccc2C)C(O)(c2ccc(Cl)cc2)C1 (stereo not drawn) — higher, 16.7%
- COc1ccc(CCNC(=O)c2ccc(Cl)nc2)cc1 — higher, 11.8%
- S=C(c1ccc(Cl)cc1)N1CCOCC1 — higher, 2.47%
- COCc1cc(C)nc(OCC(=O)N/N=C/c2ccc(O)cc2)c1C#N — lower, -0.96%
- CCc1ccc(-c2nc(CS(=O)CC(=O)NCc3ccccc3)c(C)o2)cc1 (stereo not drawn) — higher, 8.64%
- CCn1c(N2CCN(S(=O)(=O)CC)CC2)nc2ccccc21 — higher, 2.39%
- CCCNC(=O)[C@@H]1CCCN1C(=O)C1CCN(S(=O)(=O)c2ccc(C)cc2)CC1 — higher, 2.84%
- Cc1nc(N2CCN(C(=O)c3cccs3)CC2)c2c3c(sc2n1)CCCC3 — higher, 1.12%
- CCOC(=O)C1=C(N)Oc2ccc3ccccc3c2C1c1ccc(O)c(OC)c1 (stereo not drawn) — higher, 5.28%
- O=C(O)c1cn(-c2ccccc2)nc1-c1ccncc1 — higher, 29.4%
- COc1ccc(CNC(=S)NCc2ccc(Cl)cc2)cc1OC — lower, -7.46%
- CCOC(=O)C1=C(C)NC(C)=C(C(=O)OCC)C1/C=C/c1ccccc1 — lower, 0.179%
- COc1ccc(C(=S)N2CCN(c3cccc(Cl)c3)CC2)c(OC)c1 — higher, 9.95%
- Cc1ccc(CN2CCN(Cc3ccon3)CC2CCO)cc1 (stereo not drawn) — higher, 8.87%
- COC(=O)c1cc(OC)nc2c1c(=O)n(C)c(=O)n2C — higher, 8.35%
- Cc1ccc(CNC(=O)COC(=O)c2ccc(S(=O)(=O)N(C)C)cc2)cc1 — higher, 17.8%
- O=C(NCCC1CCCCN1S(=O)(=O)c1ccc(Cl)cc1)C(=O)NCc1cccnc1 (stereo not drawn) — lower, -5.1%
- COc1ccccc1NC1=NC(c2ccc(Cl)cc2)N=C(N)N1 (stereo not drawn) — higher, 1.19%
- CCCCCCCC1c2c(c(C)c(C)oc2=O)Oc2c(C)c(C)oc(=O)c21 — higher, 12.5%
- Cc1ccc(C(C(=O)NC2CCCCC2)N(CCCN2CCOCC2)C(=O)c2snc(C(N)=O)c2N)cc1 (stereo not drawn) — higher, 6.64%
- CCC12CC3CC(C1)CC(C(=O)NNC(N)=O)(C3)C2 — higher, 9.69%
- CCCCc1c(C)nn(-c2nnc3c4ccccc4n(CC)c3n2)c1C — higher, 17%
- Cc1ccnc(Nc2nc(-c3c(C)nc4sccn34)cs2)c1 — lower, -3.29%
- C=CC[n+]1c(/C=C2\C=Cc3cc(C)ccc3N2CC)ccc2ccccc21.[Br-] — lower, -92.1%
- Cc1cc(C)cc(NC(=O)CCC(=O)Nc2nnc(C(F)(F)F)s2)c1 — higher, 12.6%
- COc1ccc(Cn2c(=O)[nH]c3cc(C(=O)Nc4ccc(N5CCN(C)CC5)cc4)ccc32)cc1 — higher, 16.4%
- CC1=C(C)CC(C(=O)c2ccccc2)C(C(=O)O)C1 (stereo not drawn) — higher, 8.42%
- CCn1c(SCC(=O)Nc2cccc(C)c2)nc2ccccc2c1=O — lower, -3.21%
- Nc1nc2c(ccc3ccccc32)s1 — higher, 11.7%
- c1ccc(Cc2nc(-c3ccccn3)no2)cc1 — higher, 5.25%
- COc1ccc(NC(=O)CNc2cc(S(=O)(=O)N3CCOCC3)ccc2NCC2CCCO2)cc1 (stereo not drawn) — higher, 6.28%
- Cc1cc(C)nc(NS(=O)(=O)c2ccc(NC(=S)NC(=O)c3ccco3)cc2)n1 — higher, 10.5%
- Cc1ccc(C(=O)OCC(=O)NCCNC(=O)COC(=O)c2ccc(C)s2)s1 — higher, 9.7%
- C#CCOCCOCCOCCNc1nc(N2CCN(C(=O)[C@H]([C@@H](C)CC)n3cc([C@@H](N)CC(C)C)nn3)CC2)nc(N2CCN(C(=O)[C@H](Cc3ccc(O)cc3)n3cc([C@@H](N)CC(C)C)nn3)CC2)n1.Cl — higher, 9.79%
- O=C(CC1CS(=O)(=O)CC1CC(=O)Nc1ccc2c(c1)OCCO2)Nc1ccc2c(c1)OCCO2 (stereo not drawn) — higher, 1.74%
- Cc1ccc2c(c1)N(CC(=O)Nc1ccccc1F)C(=O)CO2 — higher, 17.1%
- CC1(C)C(=O)OC(c2cccs2)C(C)(C)C1=O (stereo not drawn) — higher, 10.1%
- O=c1c2ccccc2nc2n1C(CBr)CN2 (stereo not drawn) — higher, 12%
- Cc1cc(C)c(OCC(=O)Nc2ccccc2N2CCOCC2)c(C)c1 — higher, 16.7%
- Cc1ccc(S(=O)(=O)CCC(=O)Nc2ccccc2Cl)cc1 — higher, 11.9%
- COC(=O)c1ccccc1NC(=O)CN(c1ccc(C)cc1)S(C)(=O)=O — higher, 5.38%
